Experimental data: the supplement of paper PMC4723716
± gives the uncertainty stated by the source. In all, about 9,900 compounds were measured (“viability index relative to DMSO control”: median about 1, lowest 2% from about 0.85 on). The list shows a part of the results.

Test system: Plasmodium falciparum NF54 stage V gametocytes
Test: viability index relative to DMSO control (fraction); higher = less gametocyte killing
Details: 2.5 µM, library set: Broad Institute DOS, incubation time: 72 h
How it was run: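 P. falciparum NF54 stage V gametocytes (serum-free medium, 0.75% gametocytemia, 1.25% hematocrit) were exposed to compound at 2.5 µM for 72 hr at 37°C under low oxygen, then stained with MitoTracker Red CMXRos and saponin for one to two hours. Red particles of 20–70 µm2 in one field per well were counted, and the viability index is that count scaled to the plate mean of solvent-only wells.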

SMILES | viability index
C[C@@H]1CN([C@@H](C)CO)C(=O)CCCn2nncc2CO[C@H]1CN(C)C(=O)c1cc(-c2ccccc2)on1 | 1.06 ± 0.026
C/C=C/c1cccc(-c2nc(C(=O)NCCN3CCCCC3)cc3c2[C@@H](CCO)N([S@](=O)C(C)(C)C)C3)c1 | 1.03 ± 0.015
COc1ccc([C@H]2C/C=C/C[C@H](C)Oc3ccccc3C(=O)N(C)[C@@H](C(C)C)C(=O)N2)c(OC)c1.COc1ccc([C@H]2C/C=C\C[C@H](C)Oc3ccccc3C(=O)N(C)[C@@H](C(C)C)C(=O)N2)c(OC)c1 | 0.9687 ± 0.0033
C[C@H]1CCCCO[C@@H](CN(C)C(=O)Nc2ccccc2)[C@@H](C)CN([C@@H](C)CO)C(=O)c2cc(NC(=O)Nc3ccccc3)ccc2O1 | 0.963 ± 0.11
CNC[C@@H]1Oc2c(NS(=O)(=O)c3ccc(Cl)cc3)cccc2C(=O)N([C@@H](C)CO)C[C@@H]1C | 0.961 ± 0.026
C[C@@H]1C/C=C/C[C@@H](c2cccc(Cl)c2)NC(=O)[C@@H](Cc2ccccc2)N(C)C(=O)c2ccccc2O1.C[C@@H]1C/C=C\C[C@@H](c2cccc(Cl)c2)NC(=O)[C@@H](Cc2ccccc2)N(C)C(=O)c2ccccc2O1 | 0.812 ± 0.044
COc1cccc(S(=O)(=O)N2C[C@H](O)COC[C@H]3O[C@@H](CC(=O)N4CCN(c5ccccc5)CC4)CC[C@@H]32)c1 | 1.019 ± 0.0078
COc1ccccc1-c1cn(CC[C@@H]2CC[C@H](NC(=O)C3CCCCC3)[C@@H](CO)O2)nn1 | 1 ± 0.058
CO[C@@H]1CN(C)C(=O)c2ccc(NS(=O)(=O)CC(F)(F)F)cc2OC[C@@H](C)N(Cc2nccs2)C[C@H]1C | 1.05 ± 0.025
CO[C@@H]1CN(C)C(=O)c2cc(NC(=O)c3ccc(Oc4ccccc4)cc3)ccc2OC[C@@H](C)NC[C@@H]1C | 1.032 ± 0.0066
O=C(NC[C@@H]1N[C@@H](CO)[C@@H]1c1ccccc1)c1ccccc1F | 1.09 ± 0.033
CCC(=O)N1[C@@H](CO)[C@@H](c2ccccc2)C12CN(C(=O)c1ccc3c(c1)OCO3)C2 | 1.07 ± 0.058
CCCC(=O)N1C[C@]2(CN(Cc3nccs3)C2)c2c([nH]c3cc(OC)ccc23)[C@H]1CO | 0.973 ± 0.015
CC(C)(O)C#Cc1cccc(-c2nc(C(=O)O)cc3c2[C@@H](CCO)N(S(=O)C(C)(C)C)C3)c1 (stereo not given in full) | 1.03 ± 0.061
C[C@H](NC(=O)C[C@@H]1CC[C@H]2[C@H](COc3ccc(NS(=O)(=O)c4ccc(Cl)cc4)cc3C(=O)N2C)O1)c1ccccc1 | 0.927 ± 0.057
O=C1NCCOCc2cnnn2CC[C@H]1Cc1ccc(F)cc1 | 1 ± 0.2
CN1c2ccc(-c3ccccc3)cc2[C@@H]2[C@@H](CCN2C(=O)NC2CCCCC2)[C@@H]1CO | 0.898 ± 0.14
COc1ccc2c3c([C@H](CO)N(C)C[C@]33CCN(CC3)S(=O)(=O)c3cccc(F)c3)n(C)c2c1 | 0.965 ± 0.025

SMILES | viability index
CCc1csc(N2[C@H](C#N)[C@H](c3ccccc3-c3ccc(F)cc3)[C@H]2CO)n1 | 1.1 ± 0.056
CO[C@H]1CC[C@@H]2CCN(C)C(=O)[C@H](C)N(C)C(=O)c3cccc(C#N)c3OC[C@@H]1O2 | 1.12 ± 0.12
O=C(Nc1ccc(F)cc1)N1CC(=O)N2[C@H](CO)[C@@H](c3ccc(C#Cc4cccnc4)cc3)[C@@H]2C1 | 1.1 ± 0.022
C[C@H]1CN([C@@H](C)CO)C(=O)CCCn2nncc2CO[C@@H]1CN(C)C(=O)Nc1ccnc(N2CCOCC2)c1 | 0.962 ± 0.085
CC(C)NC(=O)Nc1cccc2c1O[C@H](CN(C)C(=O)Nc1ccccc1)[C@H](C)CN([C@H](C)CO)C2=O | 1.03 ± 0.09
Cn1cnc(S(=O)(=O)N[C@@H]2CC[C@H](CC(=O)NCC3CCCCC3)O[C@@H]2CO)c1 | 1.05 ± 0.043
O=C(C[C@H]1C=C[C@@H](NC(=O)c2cnccn2)[C@H](CO)O1)NCc1ccccc1F | 1.03 ± 0.12
NCC[C@@H]1CC[C@@H](NC(=O)Cc2ccncc2)[C@H](CO)O1 | 1.1 ± 0.069
CC(C)NC(=O)N[C@H]1CC[C@H](CC(=O)NCCCN(C)C)O[C@H]1CO | 1.006 ± 0.0083
C[C@@H](NC(=O)C[C@H]1CC[C@H]2[C@@H](COC[C@@H](O)CN2Cc2ccc(C(F)(F)F)cc2)O1)c1ccccc1 | 1.04 ± 0.11
CC(C)CN(C[C@H]1N[C@H](CO)[C@@H]1c1ccccc1)C(=O)C1CCCCC1 | 1.03 ± 0.051
CO[C@H](CN(C)C(=O)c1ccccc1F)[C@H](C)CN([C@H](C)CO)S(=O)(=O)c1ccc(F)cc1 | 1.13 ± 0.035
O=C(C[C@@H]1CC[C@H]2[C@@H](COC[C@@H](O)CN2Cc2cc(F)ccc2F)O1)NCc1ccc(Oc2ccccc2)cc1 | 0.949 ± 0.0061
C/C=C/c1ccc([C@H]2[C@@H](CO)N(C(C)=O)[C@@H]2CN(CC)C(=O)CN(C)C)cc1 | 1 ± 0.012
O=C(C1CCC1)N1CC(=O)N2[C@@H](CO)[C@@H](c3ccc(Br)cc3)[C@@H]2C1 | 1.017 ± 0.0031
CN(C[C@@H]1N[C@H](CO)[C@@H]1c1ccc(C#CCC2CCCC2)cc1)S(C)(=O)=O | 1.03 ± 0.03
C[C@H](CO)N1C[C@H](C)[C@H](CN(C)S(C)(=O)=O)Oc2ccc(NC(=O)NC3CCCCC3)cc2C1=O | 0.979 ± 0.024
